Test results published in patent US20230002488A1 (SYSTIMMUNE, published 2023).

What was measured:
human 4-1BB = target: T1, human 4-1BB (human, UniProt Q07011, in part); assay: BLI (Octet), GNC on AHC sensor, 100 nM antigen as analyte, 1:1 fit
T1 construct: Bought antigen; construct not described

human PD-L1 = target: T2, human PD-L1 (human); assay: BLI (Octet), GNC on AHC sensor; strong binding, dissociation too slow to quantify KD
T2 construct: Bought antigen; construct not described

Kd (human 4-1BB): 2.75 nM
binding result (human PD-L1): binds
B1: SI-49P3 (antibody, human IgG1, kappa)
heavy: EIVMTQSPSTLSASVGDRVIITCQASESISSWLAWYQQKPGKAPKLLIYEASKLASGVPSRFSGSGSGAEFTLTISSLQPDDFATYYCQGYFYFISRTYVNSFGCGTKLTVLGGGGSGGGGSGGGGSGGGGSEVQLVESGGGLVQPGGSLRLSCTASGFTISTNAMSWVRQAPGKCLEWVGVITGRDITYYASWAKGRFTISRDTSKNTVYLQMNSLRAEDTAVYYCARDGGSSAITSNNIWGQGTLVTVSTGGGGSGGGGS[sequence of about 450 residues with a human IgG1 Fc not given]GGGGSGGGGSEVQLLESGGGLVQPGGSLRLSCAASGFSFSSGYDMCWVRQAPGKCLEWIACIAAGSAGITYDANWAKGRFTISRDNSKNTLYLQMNSLRAEDTAVYYCARSAFSFDYAMDLWGQGTLVTVSSGGGGSGGGGSGGGGSGGGGSDIQMTQSPSTLSASVGDRVTITCQASQSISSHLNWYQQKPGKAPKLLIYKASTLASGVPSRFSGSGSGTEFTLTISSLQPDDFATYYCQQGYSWGNVDNVFGCGTKVEIKGGGGSGGGGSGRSLVESGGGLVQPGGSLRLSCTASGFTISSYHMQWVRQAPGKCLEYIGTISSGGNVYYASSARGRFTISRPSSKNTVDLQMNSLRAEDTAVYYCARDSGYSDPMWGQGTLVTVSSGGGGSGGGGSGGGGSGGGGSDVVMTQSPSSVSASVGDRVTITCQASQNIRTYLSWYQQKPGKAPKLLIYAAANLASGVPSRFSGSGSGTDFTLTISDLEPGDAATYYCQSTYLGTDYVGGAFGCGTKVEIK
light: [sequence of about 200 residues not given]GGGGSGGGGSFLNSLFNQEVQIPLTESYCGPCPKNWICYKNNCYQFFDESKNWYESQASCMSQNASLLKVYSKEDQDLLKLVKSYHWMGLVHIPTNGSWQWEDGSILSPNLLTIIEMQKGDCALYASSFKGYIENCSTPNTYICMQRTVGGGGSGGGGSGGGGSGGGGSFLNSLFNQEVQIPLTESYCGPCPKNWICYKNNCYQFFDESKNWYESQASCMSQNASLLKVYSKEDQDLLKLVKSYHWMGLVHIPTNGSWQWEDGSILSPNLLTIIEMQKGDCALYASSFKGYIENCSTPNTYICMQRTV
